Measured values as given in the supplement of paper PMC3724861.
Some of the results follow.

system: T1, Caupolican (Caup) homeodomain DNA-binding domain; test: PBM E-score (8-mer, recovered from the published 9-mer minima) (E-score (dimensionless, -0.5 to 0.5)); Drosophila protein; higher = stronger relative binding preference, active = 0.31 or more
T1 sequence: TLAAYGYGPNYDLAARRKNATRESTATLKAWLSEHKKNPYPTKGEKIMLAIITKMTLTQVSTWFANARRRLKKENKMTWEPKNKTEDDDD
Procedure, shortened: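 An enrichment score, with higher meaning stronger, expresses relative binding preference for each short DNA word. The protein used was Caup's homeodomain DNA-binding domain (residues 214-303), produced by in vitro transcription and translation and tested at 100 nM on custom-designed protein binding microarrays. The 8-mer values were recovered from published 9-mer scores, each equal to the lower of its two constituent 8-mer scores.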

| Sequence | PBM E-score |
| --- | --- |
| AGGCACCC | inactive: -0.249 |
| CCGGGCAC | inactive: -0.198 |
| ATCAATCG | ≥ 0.156 |
| CAGCAACA | inactive: 0.202 |
| CCAGAAAG | inactive: -0.0376 |
| CACCCGGG | inactive: -0.259 |
| ACATATTG | inactive: 0.26 |
| AAGGCAGC | inactive: -0.184 |
| TACGAAGA | ≥ 0.114 |
| AGCTTACT | inactive: -0.00482 |
| CAAGAGTG | inactive: 0.0824 |
| CGTCAACA | inactive: 0.0802 |
| AGGTGATA | inactive: 0.00708 |
| AGCTTAGA | inactive: -0.0147 |
| GTGTAGCA | inactive: 0.194 |
| ACCCAAAG | inactive: -0.153 |
| GGAAGGCC | inactive: -0.255 |
| GTGCAAAC | inactive: 0.023 |
| CATATGCA | inactive: 0.149 |
| CCTGCTTC | inactive: -0.175 |
| CCTGTCCG | inactive: 0.0228 |
| CGGGAGCC | inactive: -0.262 |
| GATGTAAC | inactive: 0.306 |

| Sequence | PBM E-score |
| --- | --- |
| GATGGGAC | inactive: -0.0604 |
| ATTCGTTG | inactive: 0.0756 |
| CATTCGAA | inactive: 0.109 |
| ATGGTCTG | inactive: 0.0396 |
| GCTTAATA | inactive: -0.0551 |
| ATGCCGTC | inactive: 0.02 |
| ATATTTCG | inactive: 0.142 |
| AAGTATGC | inactive: 0.0832 |
| GCTTACCC | inactive: -0.181 |
| TCACTCAA | inactive: 0.00904 |
| AAACGGGC | inactive: -0.127 |
| ATCCGCAA | inactive: -0.0477 |
| CTCTTGCC | inactive: -0.00459 |
| AACGTAGA | inactive: 0.0221 |
| AGCTAAGC | inactive: -0.202 |
| CAACTCCG | inactive: -0.154 |
| CTCCGACC | inactive: -0.259 |
| CCCCGGCG | inactive: -0.293 |
| ACCCGCTG | inactive: -0.0225 |
| AACGGGTG | inactive: 0.0746 |
| AACACTCC | inactive: 0.14 |
| AAAGCTCC | inactive: -0.127 |
| ACTAGATG | inactive: 0.121 |

| Sequence | PBM E-score |
| --- | --- |
| CGGTGTCA | inactive: 0.193 |
| CTTATAAG | inactive: -0.077 |
| GAATGAAA | inactive: -0.0104 |
| TATAAGAA | inactive: 0.0887 |
| CGGGTGAG | inactive: -0.228 |
| ATGCTCTA | inactive: 0.044 |
| AATTTGTC | inactive: 0.153 |
| TCAAAACA | inactive: 0.235 |
| CTTTTCGC | inactive: -0.012 |
| TCCGACAA | inactive: 0.219 |
| CCTGCCAC | inactive: -0.21 |
| CAGTAAGC | inactive: -0.039 |
| CGCTAAAC | inactive: -0.0158 |
| ATGCCCAG | inactive: -0.138 |
| CCGTAGAG | inactive: -0.071 |
| GCCGAAGC | inactive: -0.217 |
| AGGTGCCG | inactive: -0.137 |
| GATATTGC | inactive: 0.0829 |
| CCCCACCG | inactive: -0.216 |
| GATAATAA | inactive: 0.0864 |
| CGGAAGTA | inactive: -0.0468 |
| CGGGCATC | inactive: -0.126 |
| GAAAACCC | inactive: -0.0587 |

| Sequence | PBM E-score |
| --- | --- |
| CGTTCTTC | inactive: -0.0542 |
| GCGAAGAC | inactive: -0.112 |
| AGCCCCAG | inactive: -0.197 |
| AATGAGCA | inactive: 0.112 |
| AATTCATC | inactive: -0.0346 |
| GTTCACCA | inactive: 0.0226 |
| AGTAGTCG | inactive: 0.0743 |
| CCCAACCA | inactive: 0.0519 |
| ACAGGTTA | inactive: 0.214 |
| ACGGGAGA | inactive: -0.11 |
| ATTCAAAC | inactive: 0.172 |
| GCTGTGAA | inactive: 0.0532 |
| CCTTGCAA | inactive: -0.0994 |
| TGCGTAAA | inactive: 0.0292 |
| ATGTCCAA | inactive: 0.295 |
| TATGCTCA | inactive: 0.124 |
| AATAAGAG | inactive: -0.0344 |
| CCCAAGGG | inactive: -0.297 |
| ACCGGGAC | inactive: -0.148 |
| GTGACGAA | inactive: -0.0266 |
| AGTCCGAA | inactive: -0.0068 |
| ATAGTTGG | inactive: -0.0615 |
| ACCAATGA | ≥ 0.134 |

| Sequence | PBM E-score |
| --- | --- |
| CACCATTC | inactive: 0.0158 |
| AATTTTAT | inactive: 0.0804 |
| AGGAGTAC | inactive: 0.0428 |
| CTAGCTGC | inactive: -0.163 |
| CAAGTTTC | inactive: 0.0367 |
| ACCATGCT | inactive: 0.14 |
| CCGTCGGA | inactive: -0.129 |
| GGCTGCTA | inactive: -0.0763 |
| GACCAATA | inactive: 0.149 |
| CCGCCCTC | inactive: -0.219 |
| GCACTAGC | inactive: -0.135 |
| CAACTCGG | inactive: -0.0136 |
| TCCATTCA | inactive: 0.0186 |
| AGAGCAGC | inactive: -0.0652 |
| ACCCACAA | inactive: 0.0099 |
| GACTGACC | inactive: -0.136 |
| ACCTCCCA | inactive: -0.134 |
| AAACTTGC | inactive: 0.0177 |
| ATGTTCTA | inactive: 0.283 |
